# Assay results: PubChem BioAssay AID588855 (National Center for Advancing Translational Sciences (NCATS), 2011)
# “And” between values parts separate entries of the source, which are not always exact repeats. Equal entries are not always repeated. In all, about 410,000 compounds went through this assay and about 5,000 (1.2%) were called active. The shares of active, inactive and inconclusive entries below differ from those in the screen. Calls come from the whole dose curve; as a rule, active = well fitted inhibition curve with a large enough effect; inconclusive = small, poorly fitted or top-dose-only effect; inactive = no such curve, though single readings can be large or run the other way. Potencies beside an inconclusive call are fits to weak or partial responses and may not hold up.
# Assay: qHTS for Inhibitors of TGF-b; note: nearly all actives have a fitted effect of over 65% in size
# Conditions: HepG2 CAGA-GFP TGF-b/SMAD3 reporter, GFP fluorescence, 18 h, TGF-beta stimulated, 500 pg/mL final; series mostly up to 46.1 µM
# In short: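 Using HEPG2 CAGA-GFP reporter cells at 1000 cells/well, we pinned test compounds, stimulated with recombinant TGF-beta (500 pg/mL final) and measured total well GFP after 18 h.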
# Potency is the fitted concentration of half-maximal effect; tags give direction and shape of the fitted curve.
row,SMILES,Potency
1,CC(C)(C)OC(=O)N1CCC(C(=O)N2CCOCC2)CC1,"inconclusive: 2.82 µM [inhibitor, full curve, poor fit]"
2,COc1ccc(-n2c(SCCC#N)nnc2-c2cc(Cl)ccc2OC)cc1Cl,inactive
3,CC1CCCC(NC(=O)CN(C)CC(=O)Nc2cccc(F)c2)C1C (stereo unspecified),"inconclusive: 35.5 µM [inhibitor, single point]"
4,C=CCOC(=O)COc1ccc2c3c(c(=O)oc2c1)CCCC3,inactive
5,COc1ccc(-c2noc(N3CCN(c4cccc(C)c4C)CC3)n2)cc1OC,"inconclusive: 7.94 µM [inhibitor, partial curve]"
6,COc1ccccc1NC(=S)NCc1ccc2c(c1)cc(C)n2C,"inconclusive: 35.5 µM [inhibitor, single point]"
7,Cn1c(NC(=O)c2cccs2)c(-c2cccs2)c(=O)c2ccccc21,"inconclusive: 0.891 µM [inhibitor, full curve, poor fit]"
8,C[C@H]1CN([C@@H](C)CO)C(=O)Cc2cc(NC(=O)CCC(F)(F)F)ccc2O[C@H]1CN(C)S(=O)(=O)c1ccc(Cl)cc1,"inconclusive: 1.12 µM [inhibitor, partial curve, poor fit]"
9,COc1ccc(NC(=S)Nc2ccc3nsnc3c2)cc1,"inconclusive: 35.5 µM [inhibitor, single point]"
10,O=C(NCCCn1ccnc1)c1nn2c(C(F)(F)F)cc(-c3ccc(Br)cc3)nc2c1Cl,inactive
11,COc1ccc(C(=O)NC(CC(C)C)C(=O)O)cc1OC (stereo unspecified),inactive
12,Cc1cccc(OCC(=O)Nc2cc(-c3nc4cc(Cl)ccc4o3)ccc2C)c1,"inconclusive: 0.891 µM [inhibitor, full curve, poor fit]"
13,CC(C)N(C(=O)CSc1nc2ccccc2n1Cc1ccccc1F)C(C)C,inactive
14,CCO[C@@H]1OC(C(=O)NCc2ccccc2)=C[C@H](c2csc3ccccc23)[C@H]1CCCO,"inconclusive: 22.4 µM [inhibitor, single point]"
15,Cc1ccc(-c2cc(C(=O)NCc3ccccc3)c3c(-c4ccc(C)cc4)[nH]nc3n2)cc1,"inconclusive: 0.398 µM [inhibitor, full curve, poor fit]"
16,CC(C)c1ccc(-c2csc3nc[nH]c(=O)c23)cc1,"inconclusive: 11.2 µM [inhibitor, single point]"
17,O=C(Nc1ccc(-n2cc(Br)cn2)cc1)c1ccncc1,inactive
18,O=c1c(-c2n[nH]c(=S)o2)cccn1Cc1ccccc1,"inconclusive: 6.31 µM [inhibitor, single point]"
19,Cc1sc(N/N=C/c2cccs2)nc1-c1ccccc1,"inconclusive: 15.8 µM [inhibitor, single point]"
20,O=S(=O)(O)c1nc2ccccc2n1Cc1ccc(Cl)cc1Cl,"inconclusive: 35.5 µM [inhibitor, single point]"
21,O=S(=O)(CCc1ccncc1)Cc1ccc2c3c(cccc13)CC2,"inconclusive: 14.1 µM [inhibitor, single point]"
22,Cc1ccccc1C(=O)Nc1cc(S(=O)(=O)N2CCCCC2)ccc1N1CCN(C)CC1,inactive
23,CCN(CC)c1ccc(C=Nc2cc(C)cc(C)c2)c(O)c1,"inconclusive: 2.82 µM [inhibitor, partial curve, poor fit]"
24,Nc1cccc2c(O)cccc12,inactive

row,SMILES,Potency
1,Cc1cc(N2CCC(C)CC2)nc2ccc(NC(=O)/C=C/c3cccc(Cl)c3)cc12,inactive
2,CS(=O)(=O)N(CC(=O)N1CCN(c2ccccc2F)CC1)c1cccc(C(F)(F)F)c1,"inconclusive: 7.94 µM [inhibitor, partial curve, poor fit]"
3,CC(C)c1ccc(Nc2c(-c3ccccc3O)nc3cnccn23)cc1,"inconclusive: 22.4 µM [inhibitor, single point]"
4,COC(=O)Nc1nc2ccc(C(=O)c3cccs3)cc2[nH]1,"inconclusive: 0.708 µM [inhibitor, full curve]"
5,Cc1ccc(-n2c(SCC(=O)Nc3cccc(Cl)c3)nc3n[nH]c(C)c3c2=N)cc1,active: 1.78 µM
6,Cc1ccsc1/C=N/NC(=O)c1cc(-c2ccncc2)nc2ccccc12,"inconclusive: 11.2 µM [inhibitor, partial curve]"
7,CC1(C)NC(=O)N(CCOCCOc2c(Cl)cc(Cl)cc2Cl)C1=O,inactive
8,Oc1ccccc1N=Cc1c(O)ccc2oc3c(c12)CCCC3,active: 12.6 µM
9,Cc1cnc(NC(=O)C2CC(=O)N(c3cccc(Cl)c3)C2)s1 (stereo unspecified),"inconclusive: 2.24 µM [inhibitor, full curve, poor fit]"
10,S=C1NC[C@H](c2ccccc2)N1CC1CCCCC1,"inconclusive: 0.251 µM [inhibitor, full curve, poor fit]"
11,COc1cc(OC)c(OC)cc1/C=C1\CC(C)C/C(=C\c2cc(OC)c(OC)cc2OC)C1=O (stereo unspecified),"inconclusive: 22.4 µM [inhibitor, single point]"
12,COCCN1C(=O)c2ccccc2C(C(=O)NCC2CCCO2)C1c1c[nH]c2ccccc12 (stereo unspecified),"inconclusive: 3.98 µM [inhibitor, full curve]"
13,COc1ccc(NC(=O)c2nnn(Cc3ccc(Br)cc3F)c2N)c(OC)c1,inactive
14,CC(=O)Oc1[nH]c(=O)c2cccc3c2c1CCC3,inactive
15,Cn1c(SCC(=O)NCc2ccc3c(c2)OCO3)nc2scc(-c3cccs3)c2c1=O,inactive
16,CC(C)(C)C(=O)C(Cc1ccccc1)n1cncn1 (stereo unspecified),inactive
17,O=C(CN1CCCC1)Nc1ccc(Br)cc1,inactive
18,CCOc1ccc(NC(=O)CCN2CCN(S(=O)(=O)c3ccc(Cl)cc3)CC2)cc1,"inconclusive: 6.31 µM [inhibitor, partial curve, poor fit]"
19,O=C(O)Cn1ncn(-c2ccc(OC(F)(F)F)cc2)c1=O,inactive
20,CN1CCN(CCCN2c3ccccc3Sc3ccc(C(F)(F)F)cc32)CC1,"inconclusive: 35.5 µM [inhibitor, single point] and inconclusive: 35.5 µM [inhibitor, partial curve, poor fit]"
21,COc1ccc(CN(CC(O)COCc2ccccc2)S(=O)(=O)c2ccccc2Br)cc1 (stereo unspecified),"inconclusive: 35.5 µM [inhibitor, single point]"
22,CCOC(=O)c1ccc(Oc2cn[nH]c2-c2ccc(OCC(=O)NN)cc2O)cc1,"inconclusive: 35.5 µM [inhibitor, partial curve, poor fit]"
23,Cc1cc(F)ccc1S(=O)(=O)N1CCCOC1CNC(=O)C(=O)NCCc1ccco1 (stereo unspecified),inactive
24,CCOC(=O)/C=c1\s/c(=C\c2ccc(C(=O)OC)cc2)c(=O)n1CC(=O)Nc1ccccc1,inactive

row,SMILES,Potency
1,CCOc1cc(/C=C2\SC(=Nc3ccc(CC)cc3)NC2=O)ccc1OCC(=O)O,"inconclusive: 0.112 µM [inhibitor, full curve, poor fit]"
2,COc1cccc(-c2nn(C)c3sc(C(=O)N4CCN(c5cccc(C)c5)C(C)C4)cc23)c1 (stereo unspecified),inactive
3,CCc1nnc(SCc2nc(-c3ccc(OC)cc3)oc2C)c2cc3sccc3n12,inactive
4,COc1ccccc1CCNC(=O)Cn1ccc2cc(S(=O)(=O)N3CCCCCC3)ccc21,inactive
5,CCOc1ccc(OCc2cccc(C(=O)O)c2)cc1,inactive
6,CCOC(=O)C1CCC(CN(Cc2c(Cl)cccc2Cl)S(=O)(=O)c2ccc(F)cc2)CC1 (stereo unspecified),"inconclusive: 3.55 µM [inhibitor, partial curve, poor fit]"
7,O=C(NCc1ccc(N2CCCC2=O)cc1)Nc1cccc(Cl)c1,inactive
8,CC(=O)NN1C(=O)/C(=C2/Sc3ccc(Cl)cc3N2C)SC1=S,inactive
9,O=C(CNS(=O)(=O)c1ccccc1)N1CCN(Cc2ccccc2)CC1,inactive
10,CCCn1c(C)cc(-c2csc(NC(=O)CCc3nc4ccccc4c(=O)[nH]3)n2)c1C,"inconclusive: 35.5 µM [inhibitor, single point]"
11,CCC(CC)C(=O)N(C)c1c(C)nc2c(OCc3ccccc3C(=O)OC)cccn12,inactive
12,O=C(NC(NC(=O)c1ccccc1)c1ccccc1)c1ccccc1,"inconclusive: 2.24 µM [inhibitor, partial curve]"
13,CN(CC1COc2ccccc2O1)C(=O)CSc1ncnc2sccc12 (stereo unspecified),inactive
14,CC(C)c1ccc(/C=N\NC(=O)c2ccc(Cn3cccn3)o2)cc1,inactive
15,COc1cc(C(=O)N2CCc3c([nH]c4ccccc34)C2c2ccccc2)cc(OC)c1OC (stereo unspecified),"inconclusive: 4.47 µM [inhibitor, partial curve]"
16,COc1ccc(OC)c(NC(=O)COc2coc(CN3CCc4ccccc43)cc2=O)c1,"inconclusive: 0.0891 µM [inhibitor, full curve, poor fit]"
17,COc1ccc(OC)c(NC(=O)COC(=O)c2c3c(nc4ccccc24)CCCC3)c1,inactive
18,COc1ccc2sc(-c3ccc(S(C)(=O)=O)cc3)c(C#CCO)c2c1,"inconclusive: 35.5 µM [inhibitor, single point]"
19,NS(=O)(=O)c1ccc(NC(=O)c2nc(S(=O)(=O)Cc3ccccc3F)ncc2Cl)cc1,"inconclusive: 35.5 µM [inhibitor, single point]"
20,Nc1nc(NC(=O)CCC(=O)O)nn1-c1ccccc1,inactive
21,Cc1ccc(S(=O)(=O)CCC(=O)N2CCN(c3nc4c(C)c(Cl)ccc4s3)CC2)cc1,"inconclusive: 6.31 µM [inhibitor, single point]"
22,COc1ccc(-c2nc(CN3CCC(C(=O)N4CCc5ccccc54)CC3)c(C)o2)cc1OC,"inconclusive: 35.5 µM [inhibitor, single point]"
23,CN1CCN(CCOc2ccc(-c3ccccc3)cc2)CC1,inactive
